Assay results reported in PubChem BioAssay AID743279 (National Center for Advancing Translational Sciences (NCATS), 2014).
The whole screen tested about 360,000 compounds, of which about 17,000 (4.7%) were called active. Inconclusive means that the source gave no clear call. Such entries were picked first, then a sample of the others. Rule as the data show it: active = activity change below about -50%; inconclusive = mostly about -30% to -49%; inactive = weaker than that.

assay: qHTS for Inhibitors of Inflammasome Signaling: IL-1-beta AlphaLISA Primary Screen; details: THP-1 LPS/ATP IL-1B secretion, 16 h; at 57.5 µM, stronger effect = lower value
Summary of the method: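 THP-1 cells pretreated 1 hr with compounds (up to 57.5 uM final), then stimulated with LPS (250 ng/mL final) plus ATP (1.25 mM final); secreted IL-1B measured by AlphaLISA after 16 hr, decreased signal indicating inhibition.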
% is scaled to controls: 0 for no effect and ±100 for the full control effect.

Structure (SMILES) | activity change
CC(=O)C12OC1CC1C3CCC4=CC(=O)CCC4(C)C3CCC12C (stereo not drawn) | inconclusive: -34.6%
Cc1ccc(C2(C)NC(=O)N(CC(=O)NNC(=O)c3cc(C)oc3C)C2=O)cc1 (stereo not drawn) | inconclusive: -41.3%
CCOC(=O)N1CCN(C(=O)/C=C/c2ccc(C(C)(C)C)cc2)CC1 | inconclusive: -37.5%
CN(C)c1ccc(C(=O)Nc2ccc(S(=O)(=O)Nc3nccs3)cc2)cc1 | inactive: 5.02%
CC(C)(C)S(=O)N1Cc2cc(C(=O)NCc3ccc4c(c3)OCO4)nc(-c3cccc(-c4ccncc4)c3)c2[C@H]1CCO (stereo partly drawn) | inconclusive: -33.6%
CN(C)/C=C/C1=CC(=O)CC(C)(C)C1 | inconclusive: -37.6%
COc1ccc(CNCC(O)(c2ccccc2)c2ccc(F)cc2)cc1OC (stereo not drawn) | active: -88.4%
COC(=O)C1=C(C)NC(=O)/C1=C\c1cc(C)n(-c2cc(C)cc(C)c2)c1C | active: -59.6%
COCc1cc(C)nc2sc(C(=O)Nc3cccc(OC)c3)c(N)c12 | inconclusive: -42.4%
Cc1ccc2nc(-c3ccc(NC(=S)NCC(C)(C)CN(C)C)cc3)sc2c1 | inactive: 0%
CC1(C)Oc2ccc3ccc(=O)oc3c2CC1O (stereo not drawn) | inconclusive: -31.5%
O=C(NC1=NCCS1)c1cc(-c2cccc(Br)c2)nc2ccccc12 | inconclusive: -33.9%
CCCCCCCNC(=O)c1ccc(N2CCC3(CC2)OCCO3)c([N+](=O)[O-])c1 | inconclusive: -38%
O=C(COc1c(F)c(F)c(C(F)(F)F)c(F)c1F)Nc1ccc(N2CCOCC2)c(Cl)c1 | inconclusive: -37.9%
OC(c1ccc(OCc2ccccc2)cc1)c1nnc(-c2ccccc2)o1 (stereo not drawn) | inactive: -8.5%
CCn1c(-c2ccccc2)c[nH]c1=S | inactive: 11.1%
CCOC(=O)N1CCN(C(=O)C[C@@H]2C[C@@]3(C(=O)OC)CC(C)(C)CC=C3N(CCc3ccc(OC)c(OC)c3)C2=O)CC1 | inconclusive: -35.2%
N#Cc1c(Cl)nsc1NC(=O)c1ccccc1 | inconclusive: -30.7%
Cc1n[nH]c(C)c1CCCCOc1ccccc1F | inconclusive: -33.2%
CCC(=O)c1ccc(N2CCN(C(=O)c3ccccc3Br)CC2)c(F)c1 | active: -54.6%
CC(C)C[C@H]1C(=O)N2CCC[C@H]2[C@]2(O)O[C@](NC(=O)[C@@H]3C=C4c5cccc6[nH]c(Br)c(c56)CC4N(C)C3)(C(C)C)C(=O)N12 (stereo partly drawn) | inconclusive: -43.4%
Cc1ccc2oc(Nc3nc(C)c(C)c(C)n3)nc2c1 | inconclusive: -39.4%
NNC(=O)c1oc2nc(-c3ccc(Cl)cc3)cc(-c3ccccc3)c2c1N | active: -81.9%
O=C(CNc1cccc(S(=O)(=O)N2CCOCC2)c1)Nc1ccc(C(F)(F)F)cc1 | inconclusive: -47.5%
CC1Cc2ccccc2N1C(=O)c1ccc(N2CCCC2)c([N+](=O)[O-])c1 (stereo not drawn) | active: -81.7%
Cc1cccc(Nc2nnc(SCC(=O)NC3CCCc4ccccc43)s2)c1C (stereo not drawn) | inconclusive: -45.1%
O=C1NC[C@H](Cc2ccccc2)N(C[C@@H]2CCCN2C[C@H](Cc2ccccc2)N2C[C@H](Cc3ccccc3)N(CCc3ccccc3)C(=O)C2=O)C1=O | active: -70.3%

Structure (SMILES) | activity change
O=C(NCCCc1ccccc1)Nc1cccc(Cl)c1 | inconclusive: -41.5%
Cc1cccc(-c2nc3c(s2)CCc2onc(-c4ccc(Br)cc4)c2-3)c1 | inactive: -2.35%
c1ccc(COc2ccc(OCCCNC3CCCC3)cc2)cc1 | active: -95.8%
CN(CC(=O)NC(=O)NCc1ccccc1)CC(=O)Nc1ccc(Cl)c(C(F)(F)F)c1 | active: -89.4%
COCCCn1c(C)cc(C(=O)CN2c3cccc4cccc(c34)S2(=O)=O)c1C | inconclusive: -37.5%
Cc1cc(NC(=S)N(CCCN2CCOCC2)Cc2ccco2)ccc1Cl | inconclusive: -40.4%
O=C(c1cnn(Cc2ccccc2)c1)N1CCN(S(=O)(=O)/C=C/c2ccccc2)CC1 | inconclusive: -35.7%
Cc1cccc(NC(=S)N2CCC(C(N)=O)(N3CCCCC3)CC2)c1C | inactive: 27.9%
Cc1nc(N2CCC(C)CC2)c2c(C)c(C(=O)Nc3ccc4c(c3)OCCO4)sc2n1 | inconclusive: -30.3%
Cc1cc(C)cc(-n2c(C)cc(C(=S)N3CCOCC3)c2C)c1 | active: -54.1%
Cc1ccc(C)c(NC(=S)NCc2ccc3[nH]c4c(c3c2)CCCC4)c1 | inconclusive: -47.2%
CC1(C(=O)NCc2ccc3c(c2)OCO3)CCN1C(=O)C1(c2ccc(Cl)cc2)CC1 (stereo not drawn) | inactive: -5.62%
COc1ccccc1/C=C/CN1CCC(CO)(Cc2ccccc2)CC1 | inconclusive: -47.7%
O=C(Nc1ccc(Br)cc1Br)C1CC(=O)N(Cc2ccccc2)C1 (stereo not drawn) | active: -56.1%
COc1ccc(N2CCN(CCC3Oc4cc([N+](=O)[O-])ccc4NC3=O)CC2)cc1 (stereo not drawn) | inconclusive: -34.7%
Cc1noc(C)c1CSc1nc2sc3c(c2c(=O)n1C)CCCC3 | inactive: -25.6%
CCC1CCCCN1C(=O)CCCc1ccccc1 (stereo not drawn) | inconclusive: -30.9%
CC(Oc1cccc(Cl)c1)C(=O)Nc1cc(S(=O)(=O)N2CCCCC2)ccc1N1CCOCC1 (stereo not drawn) | inactive: -5.04%
CCCCNc1c(-c2ccc(OC)c(SC3CCCCC3)c2)nc2cc(C)ccn12 | active: -86.4%
COc1ccc(C(=O)CCN2CCN(c3ccccc3OC)CC2)cc1 | inconclusive: -46.2%
O=[N+]([O-])c1ccccc1S(=O)(=O)N(CC(O)CN1CCCCC1)c1ccccc1 (stereo not drawn) | inconclusive: -36.9%
Cc1cc2cc(CN(Cc3ccco3)C(=O)NCc3ccccc3)c(=O)[nH]c2cc1C | inactive: 14.3%
COc1ccc(-c2c(-c3ccc(OC)c(C)c3O)n[nH]c2C)cc1 | inconclusive: -47.2%
COc1cc(/C=N/N(C)C2=NS(=O)(=O)c3ccccc32)cc(OC)c1OC | inconclusive: -37.1%
Cc1ccc(Nc2nc(N)nc(CN3CCN(Cc4ccc5c(c4)OCO5)CC3)n2)cc1Cl | inconclusive: -43.7%
O=C(NCCN1CCCC1)c1ccc2c(c1)N(Cc1ccccc1)C(=O)c1ccccc1S2(=O)=O | inconclusive: -36.7%
